Test results taken from ChEMBL document CHEMBL4888484, “Replenishing the malaria drug discovery pipeline: Screening and hit evaluation of the MMV Hit Generation Library 1 (HGL1) against asexual blood stage Plasmodium falciparum ,using a nano luciferase reporter read-out” (2022).
Among all 4,800 compounds or so, about 410 (8.5%) showed an effect of 50% or more. This is one part of the list.

System: Plasmodium falciparum
Test: Confirmatory screen in NF54 pLDH assay, in single point, at 2uM, 72h
Type: functional, Erythrocyte
Details: timepoint 72 hour

Compound | % Inhibition [%]
Cc1cc(C)n2cc(COC(=O)Cn3c(C)cc4ccccc43)nc2n1 | 2
O=C(CC(O)c1cccc(F)c1)NCCC1CCCCO1 (stereo not drawn) | 8
CC(C)N(C(=O)c1cc(O)nc2ccccc12)C1CC1 | 10
CC1CCCCC1OCCN1CCOCC1C(N)=O (stereo not drawn) | 7
CCc1nc2c(C(=O)N3CCOc4c(C)cc(C)cc43)ccnc2[nH]1 | 60
CNC(=O)c1cc(Br)cnc1NC | 10
O=C(NCCc1cnc2c(Cl)cnn2c1)[C@@H]1CC=CCC1 | -25
C#C[C@H](C)OC(=O)c1cccc(Nc2cnccn2)c1 | 10
Cc1cnccc1NCCNC1CCN(c2ccc3c(c2)CCC3)CC1 | 77
Cc1ccc(C(=O)c2ccc(NC(=O)c3ncn(-c4ccc(Cl)cc4)n3)cc2)cc1 | -9
COc1cccc(C(=O)NCC(=O)N2CC=C(c3ccccc3)C2)c1 | 12
Cc1nc(Cc2nc(O)cs2)sc1C | -13
CC(C)(C)NC(=O)CCc1ccccc1 | -1
Cc1nc([C@@H]2CCCN2c2nc(C3CCCC3)ns2)no1 | -16
Cc1ccc(-n2c(=O)c3ccccc3n(CC(=O)NCc3cccnc3)c2=O)cc1Cl | -19
CCN(CC)CCN(C(=O)C1CCN(S(=O)(=O)c2ccc(Cl)cc2)CC1)c1nc2c(C)ccc(Cl)c2s1 | -6
Cc1c[nH]c(=O)n1-c1ccc(C(=O)NCCc2cc(F)cc(F)c2)cc1 | 10
Cc1ccc(CN2CCS(=O)(=O)CC2)o1 | -13
Cc1ccc(NC(=O)N2CCC(C(NC(=O)c3ccccc3)C(=O)N3CCCCC3C)CC2)cc1 (stereo not drawn) | -7
N#Cc1ccc(S(=O)(=O)N2C3CCC2CC(O)C3)o1 (stereo not drawn) | -10
COc1ccc(CNC(=O)c2ccc(Cl)c(-n3c(C)nc4cccnc43)c2)c(OC)c1 | 14
O=C1C2C3C=CC(C3=C(c3ccccc3)c3ccccc3)C2C(=O)N1CCO (stereo not drawn) | -12

Compound | % Inhibition [%]
COc1ccc(-c2cc3c(N4CCN(Cc5ccc6c(c5)OCO6)CC4)nccn3n2)cc1OC | -2
Cc1nc(COc2nc(C(C)(C)C)no2)cs1 | -18
CC1(C)CC2=CC3(C)CC(C)(C)CC4(C3)C2=C(C1)N(c1ccccc1)C(=O)N4C(=O)c1ccccc1 (stereo not drawn) | -15
Cc1nn(C)cc1C1C(C(=O)Nc2ccccc2)C(=O)CC(C)(O)C1C(=O)Nc1ccccc1 (stereo not drawn) | 3
C[C@H](Oc1ccc(F)cc1)C(=O)N1CCC(c2nc3cc(Cl)ccc3s2)CC1 | -1
NC(=O)c1ccc(C(F)(F)F)n(C[C@H](O)c2cc(Cl)ccc2Cl)c1=O | 60
Cc1nnc(COC(=O)c2cc3ccc(C(C)(C)C)cc3[nH]2)o1 | 11
COc1ccccc1-n1cnc2cc(C(=O)N3CCCC3)ccc2c1=O | -5
CC(O)CC(C)(C)CNC1CCCc2occc21 (stereo not drawn) | -9
Cc1cc(Cn2c(=O)n(Cc3ccccc3)c3ccncc32)on1 | 7
CN1CC(c2ccccc2Cl)C2(COc3ccccc3C2=O)C12C(=O)Nc1ccccc12 (stereo not drawn) | 14
C[C@H]1Cc2cc(C(=O)NCc3nc(C(F)(F)F)n[nH]3)ccc2O1 | 10
O=S(=O)(Nc1cccc(-c2nnc3n2CCC3)c1)c1ccc2c(c1)OCCCO2 | -8
O=c1[nH]c(N2CCCC2)nc2ccccc12 | -1
Cc1ccc(Oc2cc(C#N)c(C#N)cc2N2CCOCC2)cc1C | -9
CC[n+]1ccc(-c2ncc(-c3ccc(C(C)(C)C)cc3)o2)cc1 | 55
CC(C)(C)NC(=O)c1ncc(Br)cc1Br | 5
COc1ccc(NC(=O)Cn2c(C(F)(F)F)nc3cc4c(cc32)OCCCO4)cc1 | 10
Nc1c(Br)cc(Br)c(Cl)c1Cl | -15
NC(=O)c1ccc(COc2ccc3c(c2)CCC3=O)cc1 | 13
Cc1cc(S(=O)(=O)NC(=O)c2ccnc(C3CCCC3)n2)c(C)s1 | 0
CC(C)(C)[C@H]1CCc2c(sc(NC(=O)C3(F)C(F)(F)C(F)(F)C(F)(F)C(F)(F)C3(F)F)c2C#N)C1 | 51

Compound | % Inhibition [%]
COCc1nsc(N2CCC(c3ccccc3)CC2C)n1 (stereo not drawn) | 6
O=C(C1CCN(c2cncc3nnnn23)CC1)N1CCC(c2ccccc2)CC1 | 7
N#CC1(CNC(=O)CNC(=O)C2C3CCCCC32)CC1 (stereo not drawn) | 6
O=c1[nH]c2nc(N3CCC(N4CCCCC4)CC3)ncc2c(=O)n1-c1ccc2c(c1)OCO2 | -18
CCc1ccc2ncc(C(=O)c3ccc(Cl)cc3)c(O)c2c1 | 1
COc1cccc(S(=O)(=O)N2CCC(OCCOCc3ccccc3)CC2)c1 | 10
CCN(C(=O)[C@H]1CCN(C)[C@@H](C)C1)C1CCCC1 | 11
OC1CCC2CN(c3ncc(Cl)c(N4CC5CCC(O)C5C4)n3)CC12 (stereo not drawn) | 4
CCc1nnc2ccc(S(=O)(=O)Nc3cc(F)cc(F)c3)cn12 | -5
CC(=O)Nc1ccc(-c2cn3c4ccccc4ccc3[n+]2C)cc1 | 67
CC(C)(C)OC(=O)N1CCc2ncn(Cc3ccc(F)cc3)c(=O)c2C1 | -2
O=C(Nc1nccs1)N1CC(O)CC1CO (stereo not drawn) | -11
Cc1c(-c2ccccc2OC(=O)c2ccccc2)cnn1-c1ccccc1 | 2
CC[C@@H](CO)NC(=O)Nc1ccc(Cl)cc1 | 7
CN(C)CCN(C)c1ccc(Br)cc1NCc1cncn1C | 39
CS(=O)(=O)N1CC[C@H](CC(=O)Nc2ccccc2)C1 | -11
CCCN1CCN(CC(=O)Nc2sccc2C#N)c2cc(F)ccc21 | 12
CCOC(=O)CCn1cc(F)c(=O)[nH]c1=O | 66
Cc1cccc(NC(=O)C(=O)N(C)[C@H]2CCCc3c2cnn3C)c1F | -12
Cc1ccc(S(=O)(=O)N2CCN(C(=O)c3cc(C4CC4)nc4c3c(C)nn4C(C)C)CC2)cc1 | 13
Cc1ccccc1CNC(=O)[C@H]1CCCN(c2nc3ccccc3[nH]c2=O)C1 | 13
COc1ccc(CC(=O)N2N=C(C)C[C@]2(O)c2cccnc2)cc1 | 2

Compound | % Inhibition [%]
CC(CNC(=O)NCC(O)C1CC1)c1ccc(F)c(F)c1 (stereo not drawn) | 10
CCS(=O)(=O)N1CCN(c2c(C)n(-c3ccccc3)c(=O)n(C)c2=O)CC1 | 6
Cc1ccc(-c2c[n+](-c3ccc(OC(F)F)cc3)c3n2CCCCC3)cc1 | 60
CC(C)N(CC(=O)Nc1nccs1)Cc1ccccn1 | 59
O=S(=O)(c1ccc(Br)cc1)n1ccc(C2CC2)n1 | 8
COc1ccc(S(=O)(=O)Nc2c(C)ccc3nsnc23)cc1OC | 9
CC1(C)CCC[C@@H]1NCc1nccc(N)n1 | 9
C[n+]1ccc(-c2ncc(-c3ccccc3)o2)c2ccccc21 | 62
CN(Cc1ccccc1)C(=O)C[C@H]1CCN(C(=O)NC2CCCC2)C1 | 2
O=C(O)C1CC=CCC1C(=O)N1CCCCCC1 (stereo not drawn) | 10
CC(C)N(C)S(=O)(=O)Nc1ccc(Br)cc1O | 9
O=C(c1cc(-c2ccco2)n[nH]1)N1CCC(N2CCC(Oc3ccccc3F)CC2)CC1 | 45
O=C(Cc1c[nH]c2ccccc12)Nc1ccc(Cl)c2ncccc12 | 6
CC[C@](C)(NCCc1c[nH]c2ccccc12)c1nnnn1CCOC | 13
CCC1CN2CCCC2CN1C(=O)Nc1nc2ccccc2s1 (stereo not drawn) | 6
O=C(Nc1ccc(N2CCn3c(nc4ccccc43)C2)cc1)c1ccc(F)cc1 | 14
Cn1c(N2CCC[C@H]2c2ccc3c(c2)OCCCO3)c(C#N)c(=O)n(C)c1=O | 8
Cc1ccc(C)c(-n2cnc(=O)n2[C@H]2CCN(C3CC3)C2=O)c1 | 51
CC1CN(c2nc(-c3ccccc3)nnc2-c2ccccc2)CC(C)O1 (stereo not drawn) | 9
Cc1cc(C)c(C)c(S(=O)(=O)N2CCn3c(nnc3[C@H]3CCN(C(C)C)C3)C2)c1C | 12
CCCNCc1cc(Cl)ccc1OC | -6
CCS(=O)(=O)c1ccc(N2CC[C@H](C(N)=O)C2)cc1 | 3

Compound | % Inhibition [%]
Cc1cccc(CNc2cc([C@H]3C[C@@H](N)C3)nc(N3CCCC3)n2)c1 | 14
COc1ccccc1N(CC(=O)NCCN1CCOCC1)S(=O)(=O)c1ccc(C)cc1 | 7
CN(C)c1cccc(C(=O)N2CCN(c3ncc(F)cn3)C(=O)C2)c1 | 10
CCc1c(C)nn(-c2nncn2N)c1C | -2
CCOC(=O)c1cn([C@H]2CC(=O)N(c3ccccc3)C2=O)nn1 | 10
Cc1nc2ccnn2cc1C(=O)Nc1ccc(CCC(C)C)cn1 | 6
CCc1ccc(O[C@@H](C)C(=O)OC)c(COc2ccc(-n3c(=O)cc(C(F)(F)F)n(C)c3=O)cc2)c1 | 12
O=C(NCCN1CCCCC1)c1n[nH]c2c1CCc1ccccc1-2 | 5
CNC(=O)[C@@H](NC(=O)CNC(=O)c1ccc(Cl)cc1)C(C)(C)C | 7
COc1ccccc1OCC(=O)Nc1ccccc1-n1cnnc1C | 12
Cc1nc2cc(-c3ccc(Cl)c(Cl)c3)nn2c(N)c1-c1ccccc1 | 0
CN(C(=O)C(C)(C)Nc1ncc(C(F)(F)F)cc1Cl)c1ccc(Cl)cc1 | 14
c1cc(-c2noc(C3CC3)n2)nc(N2CCNCC2)n1 | -4
Cc1oc(=S)n2c1C[C@@H](c1ccccc1)N(Cc1ccccc1)C2 | -10
COc1cccc(CC(=O)N2CCC[C@@]3(C2)Nc2ccccc2N=C3NC(C)(C)C)c1 | -15
CC[C@H]1Cn2c(C(=O)NCc3ccc(C)cc3)cc3c(Cl)ccc(c32)O1 | -8
Cc1nnc2ccc(S(=O)(=O)N(CC#N)c3ccccc3)cn12 | 10
C[C@@]1(C(=O)NCc2ccccc2)Cn2nc(-c3ccccc3)cc2C(=O)N1c1ccc2c(c1)OCCO2 | 36
CCc1sc(NC(=O)CC#N)nc1-c1ccc(Cc2ccccc2)cc1 | -4
CCC(=O)N1CC[C@H](N(C(C)=O)C2CCOCC2)C1 | -11
